This is one part of the list.
Tests used:
Assay in all cases: glycan array binding signal (z-score within array); higher = stronger binding
Conditions in all cases: glycan notation: IUPAC condensed, linker removed
[1] = biological target: Fuc(a1-2)Gal(b1-4)GlcNAc(b1-3)Gal(b1-4)GlcNAc
Procedure, shortened: (§1)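 Glycan array data came from 3228 arrays in the Consortium for Functional Glycomics database, and only arrays with an available protein sequence were kept. Glycan names were put into IUPAC-condensed notation, and columns mapping to the same glycan were averaged. The binding signal is a within-array Z-score, averaged across arrays of one protein sequence run at different concentrations or buffers and across linkers. A negative Z-score can be read as non-binding.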

[2] = biological target: Fuc(a1-2)Gal(b1-4)GlcNAc(b1-3)Gal(b1-4)GlcNAc(b1-2)Man(a1-3)[Fuc(a1-2)Gal(b1-4)GlcNAc(b1-3)Gal(b1-4)GlcNAc(b1-2)Man(a1-6)]Man(b1-4)GlcNAc(b1-4)GlcNAc
Procedure, shortened: as §1

[3] = biological target: Fuc(a1-2)Gal(b1-4)GlcNAc(b1-3)Gal(b1-4)GlcNAc(b1-3)Gal(b1-4)GlcNAc
Procedure, shortened: as §1

[4] = biological target: Fuc(a1-2)Gal(b1-4)GlcNAc(b1-3)GalNAc
Procedure, shortened: as §1

[5] = biological target: Fuc(a1-2)Gal(b1-4)GlcNAc(b1-3)[Fuc(a1-2)Gal(b1-4)GlcNAc(b1-6)]GalNAc
Procedure, shortened: as §1

[6] = biological target: Fuc(a1-2)Gal(b1-4)GlcNAc(b1-3)[Fuc(a1-3)[Gal(b1-4)]GlcNAc(b1-6)]Gal(b1-4)Glc
Procedure, shortened: as §1

[7] = biological target: Fuc(a1-2)Gal(b1-4)GlcNAc(b1-6)GalNAc
Procedure, shortened: as §1

[8] = biological target: Fuc(a1-2)Gal(b1-4)GlcNAc6S
Procedure, shortened: as §1

[9] = biological target: Fuc(a1-2)Gal(b1-4)[Fuc(a1-3)]GalNAc(b1-3)Gal(b1-4)[Fuc(a1-3)]GlcNAc
Procedure, shortened: as §1

[10] = biological target: Fuc(a1-2)Gal(b1-4)[Fuc(a1-3)]GalNAc(b1-3)Gal(b1-4)[Fuc(a1-3)]GlcNAc(b1-3)Gal(b1-4)[Fuc(a1-3)]GalNAc
Procedure, shortened: as §1

[11] = biological target: Fuc(a1-2)Gal(b1-4)[Fuc(a1-3)]GlcNAc
Procedure, shortened: as §1

[12] = biological target: Fuc(a1-2)Gal(b1-4)[Fuc(a1-3)]GlcNAc(b1-2)Man(a1-3)[Fuc(a1-2)Gal(b1-4)[Fuc(a1-3)]GlcNAc(b1-2)Man(a1-6)]Man(b1-4)GlcNAc(b1-4)[Fuc(a1-6)]GlcNAc
Procedure, shortened: as §1

[13] = biological target: Fuc(a1-2)Gal(b1-4)[Fuc(a1-3)]GlcNAc(b1-2)[Fuc(a1-2)Gal(b1-4)[Fuc(a1-3)]GlcNAc(b1-4)]Man(a1-3)[Fuc(a1-2)Gal(b1-4)[Fuc(a1-3)]GlcNAc(b1-2)Man(a1-6)]Man(b1-4)GlcNAc(b1-4)GlcNAc
Procedure, shortened: as §1

[14] = biological target: Fuc(a1-2)Gal(b1-4)[Fuc(a1-3)]GlcNAc(b1-3)Gal(b1-4)[Fuc(a1-3)]GlcNAc
Procedure, shortened: as §1

[15] = biological target: Fuc(a1-2)Gal(b1-4)[Fuc(a1-3)]GlcNAc(b1-3)Gal(b1-4)[Fuc(a1-3)]GlcNAc(b1-3)Gal(b1-4)[Fuc(a1-3)]GlcNAc
Procedure, shortened: as §1

[16] = biological target: Fuc(a1-2)Gal(b1-4)[Fuc(a1-3)]GlcNAc(b1-3)GalNAc
Procedure, shortened: as §1

[17] = biological target: Fuc(a1-2)Gal(b1-4)[Fuc(a1-3)]GlcNAc(b1-3)[Neu5Ac(a2-6)Gal(b1-4)GlcNAc(b1-6)]Gal(b1-4)Glc
Procedure, shortened: as §1

[18] = biological target: Fuc(a1-2)Gal3S(b1-4)GlcNAc
Procedure, shortened: as §1

[19] = biological target: Fuc(a1-2)Gal6S(b1-3)GlcNAc
Procedure, shortened: as §1

[20] = biological target: Fuc(a1-2)Gal6S(b1-3)GlcNAc6S
Procedure, shortened: as §1

[21] = biological target: Fuc(a1-2)Gal6S(b1-4)Glc
Procedure, shortened: as §1

[22] = biological target: Fuc(a1-2)Gal6S(b1-4)Glc6S
Procedure, shortened: as §1

[23] = biological target: Fuc(a1-2)Gal6S(b1-4)GlcNAc
Procedure, shortened: as §1

[24] = biological target: Fuc(a1-2)GlcNAc
Procedure, shortened: as §1

[25] = biological target: Fuc(a1-2)[Gal(a1-3)]Gal
Procedure, shortened: as §1

[26] = biological target: Fuc(a1-2)[Gal(a1-3)]Gal(b1-3)GalNAc
Procedure, shortened: as §1

[27] = biological target: Fuc(a1-2)[Gal(a1-3)]Gal(b1-3)GalNAc(b1-3)Gal(a1-4)Gal(b1-4)Glc
Procedure, shortened: as §1

[28] = biological target: Fuc(a1-2)[Gal(a1-3)]Gal(b1-3)GlcNAc
Procedure, shortened: as §1

[29] = biological target: Fuc(a1-2)[Gal(a1-3)]Gal(b1-3)GlcNAc(b1-2)Man(a1-3)[Fuc(a1-2)[Gal(a1-3)]Gal(b1-3)GlcNAc(b1-2)Man(a1-6)]Man(b1-4)GlcNAc(b1-4)GlcNAc
Procedure, shortened: as §1

[30] = biological target: Fuc(a1-2)[Gal(a1-3)]Gal(b1-3)GlcNAc(b1-2)Man(a1-3)[Fuc(a1-2)[Gal(a1-3)]Gal(b1-3)GlcNAc(b1-2)Man(a1-6)]Man(b1-4)GlcNAc(b1-4)[Fuc(a1-6)]GlcNAc
Procedure, shortened: as §1

B1: XL-35 (Xenopus laevis) (protein)
chain: MLVHILLLLVTGGLSQSCDPVVIVASKNMVKQLDCDKFRNCKEIKDSNEEAQDGIYTLTSPDGISYQTFCDMTTNGGGWTLVASVHENNMAGKCTIGDRWSSQQGNRADYPEGDGNWANYNTFGSAGGATSDDYKNPGYYDIEAYNLGVWHVPNKTPLSVWRNSSLQRYRTTDGILFKHGGNLFSLYRIYPVKYGIGSCSKDSGPTVPVVYDLGSANLTASFYSPGFRSQFTPGYIQFRPINTEKAALALCPGMKMESCNVEHVCIGGGGYFPEADPRQCGDFAAYDFNGYGTKKFNSAGIEITEAAVLLFYL
glycan array binding signal (z-score) [1]: -0.123
glycan array binding signal (z-score) [2]: -0.148
glycan array binding signal (z-score) [3]: -0.134
glycan array binding signal (z-score) [4]: -0.325
glycan array binding signal (z-score) [5]: -0.14
glycan array binding signal (z-score) [6]: -0.454
glycan array binding signal (z-score) [7]: -0.097
glycan array binding signal (z-score) [8]: -0.138
glycan array binding signal (z-score) [9]: -0.067
glycan array binding signal (z-score) [10]: 0.007
glycan array binding signal (z-score) [11]: -0.188
glycan array binding signal (z-score) [12]: 0.004
glycan array binding signal (z-score) [13]: -0.067
glycan array binding signal (z-score) [14]: 0.292
glycan array binding signal (z-score) [15]: 0.014
glycan array binding signal (z-score) [16]: 0.343
glycan array binding signal (z-score) [17]: -0.231
glycan array binding signal (z-score) [18]: 0.049
glycan array binding signal (z-score) [19]: -0.082
glycan array binding signal (z-score) [20]: 0.672
glycan array binding signal (z-score) [21]: -0.029
glycan array binding signal (z-score) [22]: -0.272
glycan array binding signal (z-score) [23]: -0.092
glycan array binding signal (z-score) [24]: -0.021
glycan array binding signal (z-score) [25]: 0.198
glycan array binding signal (z-score) [26]: 0.075
glycan array binding signal (z-score) [27]: -0.322
glycan array binding signal (z-score) [28]: -0.091
glycan array binding signal (z-score) [29]: -0.278
glycan array binding signal (z-score) [30]: 0.06

Reference: the supplement of paper PMC8728848
